The source of these data is PMC8982737, “Discovery of S-217622, a Noncovalent Oral SARS-CoV-2 3CL Protease Inhibitor Clinical Candidate for Treating COVID-19” (Journal of Medicinal Chemistry, 2022).

Structures are written as SMILES.

In this data set the test system is Salmonella typhimurium (TA98, TA100, TA1535, and TA1537) and Escherichia coli (WP2uvrA). The data set is described as follows: Ames test (bacterial reverse-mutation test). Conditions: in vitro. (In general: The Ames test uses bacterial strains that need an amino acid and regain growth without it when mutated back.)

`Cn1cnc(Cn2c(=O)[nH]/c(=N\c3cc4cn(C)nc4cc3Cl)n(Cc3cc(F)c(F)cc3F)c2=O)n1` [Compound 3, (6E)-6-[(6-Chloro-2-methyl-2H-indazol-5-yl)imino]-3-[(1-methyl-1H-1,2,4-triazol-3-yl)methyl]-1-(2,4,5-trifluorobenzyl)-1,3,5-triazinane-2,4-dione]: the mutagenicity entry is given as “no safety concerns”.
